From PubChem BioAssay AID1476 (National Center for Advancing Translational Sciences (NCATS), 2009)
“And” between values parts separate entries of the source, which are not always exact repeats. Equal values may be shown once. Out of some 200,000 compounds screened, about 4,500 (2.2%) were called active. The shares of active, inactive and inconclusive entries below differ from those in the screen. The call rests on the fitted dose curve; in most records, active means well fitted inhibition curve with a large enough effect; inconclusive means small, poorly fitted or top-dose-only effect, or effect the other way; inactive means flat fitted curve, though single readings scatter. Where the call is inconclusive, the potency comes from a doubtful curve fit.

Molecular target: Cruzipain (Trypanosoma cruzi) (UniProt P25779)
Experiment: qHTS Assay for Promiscuous and Specific Inhibitors of Cruzain (without detergent); further: nearly all actives have a fitted effect of over 40% in size;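 on max response, negative = inhibition: plate controls were enzyme without inhibitor for no effect and buffer without enzyme for full effect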
Details: purified cruzain, Z-FR-AMC fluorescence, no detergent
In short: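 Detergent-free condition (0.00005% Triton X-100) in acetate buffer pH 5.5 with DTT. 1.5 nM enzyme and compound were pre-mixed 15 min, then 2 uM Z-FR-AMC substrate added; reaction progress from fluorescence change between first and third reads (60 s).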
Potency means the concentration at half of the fitted maximal effect; tags describe the fitted curve by direction and shape.

UniProt P25779, sequence (P25779 whole entry, looked up): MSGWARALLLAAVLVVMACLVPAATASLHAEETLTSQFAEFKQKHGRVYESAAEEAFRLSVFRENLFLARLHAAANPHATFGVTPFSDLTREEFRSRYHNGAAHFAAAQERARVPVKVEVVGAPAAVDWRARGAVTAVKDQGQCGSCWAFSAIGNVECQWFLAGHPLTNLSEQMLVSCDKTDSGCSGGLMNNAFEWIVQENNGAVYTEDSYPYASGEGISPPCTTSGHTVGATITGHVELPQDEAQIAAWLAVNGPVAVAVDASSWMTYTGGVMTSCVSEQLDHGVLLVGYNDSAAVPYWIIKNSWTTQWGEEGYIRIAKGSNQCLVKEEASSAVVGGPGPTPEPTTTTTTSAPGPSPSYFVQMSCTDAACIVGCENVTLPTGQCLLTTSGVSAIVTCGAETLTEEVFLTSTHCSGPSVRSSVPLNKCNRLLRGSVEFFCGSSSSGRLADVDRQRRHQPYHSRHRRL

Question: For COc1ccc2c(c1)c1nc(SCC(C)C)n(CCO)c(=O)c1n2C, which Potency is on record?
Answer: inconclusive: 31.6 µM [inhibitor, single point]

Question: COc1cc(C)ccc1OCCCn1c(-c2ccc(Cl)cc2)nc2ccccc2c1=O was tested. Which max response, negative = inhibition did it give?
Answer: inactive: -7.93%

Question: With COc1cccc(N2CCN(C(=O)c3cc4c(=O)n(Cc5ccccc5)ccc4nc3C)CC2)c1 as the compound, how does the Potency read?
Answer: inconclusive: 39.8 µM [activator, single point]

Question: For Oc1ccc(C=Nc2cccc3ncccc23)c(O)c1, which max response, negative = inhibition is on record?
Answer: inactive: -7.06%

Question: For COc1nc2ccc(C)cc2cc1-c1noc(-c2cccnc2)n1, which Potency is on record?
Answer: inconclusive: 39.8 µM [activator, single point]

Question: For COc1cc(NC(=O)c2nn(-c3ccc(C)cc3)c(=O)c3c2c2ccccc2n3C)cc(OC)c1OC, which max response, negative = inhibition is on record?
Answer: inactive: -21.7%

Question: How did the Potency turn out when CCOC(=O)c1ccccc1NS(=O)(=O)c1ccc(N2CCCCS2(=O)=O)cc1 was run?
Answer: inconclusive: 31.6 µM [activator, single point]

Question: With Cc1ccc(C)c(Nc2nc3c(S(=O)(=O)c4ccccc4)nnn3c3ccccc23)c1 as the compound, how does the Potency read?
Answer: inconclusive: 39.8 µM [inhibitor, single point]

Question: How did the Potency turn out when Cc1nn(Cc2ccccc2)c(C)c1NC(=O)CSc1nc2c(c(C(F)(F)F)n1)CCc1ccccc1-2 was run?
Answer: inconclusive: 7.94 µM [activator, full curve, poor fit]

Question: How did the Potency turn out when O=C(NNC(=O)c1sc2ccccc2c1Cl)Nc1ccc(Cl)cc1 was run?
Answer: inconclusive: 6.31 µM [inhibitor, single point]

Question: How did the Potency turn out when FC(F)(F)C(Cl)Br (centres undefined) was run?
Answer: inconclusive: 39.8 µM [activator, single point]

Question: With CN1CCN(c2oc(/C=C/c3ccc(F)cc3)nc2C#N)CC1 as the compound, how does the Potency read?
Answer: active: 25.1 µM

Question: Which Potency does the source give for CCCCCCCCCCCCCC(=O)O[C@@H]1[C@@H](C)[C@@]2(O)[C@@H](C=C(CO)C[C@@]3(O)C(=O)C(C)=C[C@@H]23)C2C(C)(C)[C@@]21OC(C)=O (some centres undefined) here?
Answer: inconclusive: 10 µM [activator, partial curve]

Question: With COc1ccc(CCN2C(=O)c3[nH]nc(-c4ccccc4O)c3C2c2cccc(OC)c2)cc1 (centres undefined) as the compound, how does the Potency read?
Answer: inconclusive: 25.1 µM [inhibitor, single point]

Question: Which Potency does the source give for CCN(CC)c1ccc(N2C(=O)/C(=C\c3cccs3)SC2=S)cc1 here?
Answer: active: 25.1 µM

Question: Which Potency does the source give for CC(=O)c1cccc(NC(=O)c2c(-c3ccccc3)c(-c3ccccc3)nn(C)c2=O)c1 here?
Answer: inconclusive: 39.8 µM [activator, single point]

Question: With Cc1cc(F)ccc1-n1nnc(C(N)=O)c1C as the compound, how does the max response, negative = inhibition read?
Answer: inactive: 9.83%

Question: How did the Potency turn out when Cc1ccc(CCNC(=O)c2cc(Nc3ccc(C)c(C)c3)nc3ccccc23)cc1 was run?
Answer: inconclusive: 10 µM [inhibitor, single point]

Question: With COc1ccc(/C=N/NC(=O)c2sccc2OCc2ccc(F)cc2)cc1OC as the compound, how does the Potency read?
Answer: inconclusive: 39.8 µM [activator, single point]

Question: With Cc1ccc(C(=O)c2ccc(CC(=O)O)n2C)cc1 as the compound, how does the max response, negative = inhibition read?
Answer: inactive: -10.9% and inactive: -9.37%

Question: For CC(NC(=O)c1ccc(NC(=O)c2nsc3ccccc23)cc1)c1ccccc1 (centres undefined), which max response, negative = inhibition is on record?
Answer: inactive: -6.76%

Question: With CC(C)(C)OC(=O)N1CCC(c2c(C(=O)NC3CCCCC3)cnn2-c2cccc(F)c2)CC1 as the compound, how does the max response, negative = inhibition read?
Answer: inactive: 12.2%

Question: Which Potency does the source give for CCOC(=O)N1CCC(NC(=O)CS(=O)(=O)Cc2nc(-c3ccccc3C)oc2C)CC1 here?
Answer: inconclusive: 39.8 µM [activator, single point]

Question: Which Potency does the source give for COc1ccc(/C=C2/SC(=O)N(CCC(=O)Nc3ccccc3)C2=O)cc1OC here?
Answer: inconclusive: 12.6 µM [inhibitor, partial curve, poor fit]

Question: How did the max response, negative = inhibition turn out when CN(C)c1ccc(-c2nccc(Nc3ccc(F)cc3)n2)cc1 was run?
Answer: inactive: 19.5%

Question: c1ccc2c(CN3CCN(Cc4c[nH]c5ccccc45)CC3)c[nH]c2c1 was tested. Which max response, negative = inhibition did it give?
Answer: inactive: 2.72%

Question: With CCN(CC)CCNC(=O)C(=O)NCC(c1cccnc1)N1CCN(c2ccccc2)CC1 (centres undefined) as the compound, how does the Potency read?
Answer: inconclusive: 39.8 µM [activator, single point]

Question: For COc1ccccc1-c1nc(C#N)c(N2CCC(Cc3ccccc3)CC2)o1, which Potency is on record?
Answer: inconclusive: 39.8 µM [inhibitor, single point]

Question: Which Potency does the source give for CCN(CCNC(=O)CS(=O)(=O)Cc1nc(-c2cccc(OC)c2)oc1C)c1ccccc1 here?
Answer: inconclusive: 39.8 µM [activator, single point]

Question: For CCNC(=S)N/N=C/c1sc(N2CCCCC2)nc1-c1cccs1, which Potency is on record?
Answer: inconclusive: 39.8 µM [inhibitor, single point]

Question: Cc1ccc(C)c(Nc2nc(-c3ccccc3)c3cc(Br)ccc3n2)c1 was tested. Which Potency did it give?
Answer: inconclusive: 31.6 µM [inhibitor, single point]

Question: Which Potency does the source give for Cc1cc(C)c2[nH]c(=O)c(C(c3nnnn3C(C)(C)C)N3CCN(C(=O)c4ccco4)CC3)cc2c1 (centres undefined) here?
Answer: inconclusive: 39.8 µM [activator, single point]

Question: Which Potency does the source give for COC(=O)[C@@]1(Cc2ccc(F)cc2)[C@@H]2[C@@H](CC(=O)[C@H]2CC(=O)C(=O)N(C)C)CN1C(=O)c1ccccc1 here?
Answer: inconclusive: 31.6 µM [activator, single point]

Question: For COc1ccc(NC(=O)CN(Cc2ccccc2)Cc2ccccc2)cc1S(N)(=O)=O, which Potency is on record?
Answer: inconclusive: 39.8 µM [activator, single point]

Question: With O=C(c1ccco1)N1CCN(C(=O)c2ccc(COc3ccc4c(c3)CCC4)o2)CC1 as the compound, how does the Potency read?
Answer: inconclusive: 39.8 µM [activator, single point]

Question: Which Potency does the source give for O=C1CS(=O)(=O)C2(C(=O)N(Cc3ccccc3)c3ccccc32)N1c1ccccc1 (centres undefined) here?
Answer: inconclusive: 1.26 µM [inhibitor, full curve]

Question: With O=C(/C=C/c1ccc(O)c(O)c1)c1ccc(S(=O)(=O)N2CCCCCC2)cc1 as the compound, how does the Potency read?
Answer: inconclusive: 15.8 µM [inhibitor, partial curve]

Question: Which max response, negative = inhibition does the source give for CCCC[C@@H]1C[C@H]1C(NC(=O)c1ccc(C(F)(F)F)cc1)c1ccc(C(=O)OC)cc1 (some centres undefined) here?
Answer: inactive: 2.34%

Question: How did the Potency turn out when Cc1ccc2oc(-c3cccc(NC(=O)c4cc(-n5cnnc5)ccc4Cl)c3)nc2c1 was run?
Answer: inconclusive: 12.6 µM [activator, partial curve]

Question: With COc1ccc(-c2noc(-c3ccc(N4CCN(c5ccccc5)CC4)c([N+](=O)[O-])c3)n2)cc1OC as the compound, how does the Potency read?
Answer: inconclusive: 39.8 µM [inhibitor, single point]

Question: COc1ccccc1C1Nc2ccccc2-n2c(-c3ccccc3)c3c(=O)n(C)c(=O)n(C)c3c21 (centres undefined) was tested. Which Potency did it give?
Answer: inconclusive: 31.6 µM [activator, single point]

Question: How did the max response, negative = inhibition turn out when Cc1ccccc1CCNC(=O)c1ccc2c(c1)nc1n2CCC(C)C1 (centres undefined) was run?
Answer: inactive: -10.1%

Question: With COc1ccc2cc(C)c3nnc(SCC(=O)Nc4nc(-c5ccccc5)cs4)n3c2c1 as the compound, how does the Potency read?
Answer: inconclusive: 3.98 µM [activator, single point]

Question: How did the max response, negative = inhibition turn out when COc1cccc(-c2nc(-c3ccccc3)no2)c1 was run?
Answer: inactive: -0.595%

Question: COc1c(F)c(F)c(C(=O)Nc2ccc3oc(-c4ccncc4)nc3c2)c(F)c1F was tested. Which Potency did it give?
Answer: inconclusive: 31.6 µM [inhibitor, single point]

Question: For O=C(NC(=S)Nc1ccccc1N1CCOCC1)c1ccc(-c2cc(Cl)ccc2Cl)o1, which Potency is on record?
Answer: active: 10 µM

Question: Cc1oc(C)c2c(=O)cc(-c3ccc4c(c3)OCO4)cc(OC(=O)c3cccc(Br)c3)c12 was tested. Which Potency did it give?
Answer: active: 25.1 µM

Question: How did the max response, negative = inhibition turn out when COc1ccc(Nc2cc(C(=O)NCCCN3CCN(c4ccc(OC)cc4)CC3)c3ccccc3n2)cc1 was run?
Answer: inactive: -5.77%

Question: For CCCSc1nnc(-c2cccc(S(=O)(=O)N(C)C)c2)n1-c1cc(OC)ccc1OC, which Potency is on record?
Answer: inconclusive: 31.6 µM [activator, single point]

Question: Which max response, negative = inhibition does the source give for CN(c1ccccc1)S(=O)(=O)c1ccc(NC(=O)c2cc(=O)c3ccccc3o2)cc1 here?
Answer: inactive: -5.07%

Question: How did the Potency turn out when O=[N+]([O-])c1ccc(Cl)c(/C=N/n2c(C3CCCCC3)n[nH]c2=S)c1 was run?
Answer: inconclusive: 31.6 µM [inhibitor, single point]

Question: Which Potency does the source give for Cc1ccc2nc(-c3ccc(SCC(=O)Nc4nnc(C)s4)nc3)[nH]c2c1 here?
Answer: inconclusive: 39.8 µM [inhibitor, single point]

Question: For Nc1cc(C(=O)O)[nH]c(=O)n1, which max response, negative = inhibition is on record?
Answer: inactive: 9.01%

Question: Which Potency does the source give for COc1ccccc1Nc1nnc(SCc2nnc(-c3cc(OC)c(OC)c(OC)c3)o2)s1 here?
Answer: inconclusive: 39.8 µM [activator, single point]

Question: Which max response, negative = inhibition does the source give for O=C(NCC(c1ccc2c(c1)OCO2)N1CCOCC1)c1cccc(Cl)c1 (centres undefined) here?
Answer: inactive: 2.21%

Question: How did the Potency turn out when COc1ccc2c(C)cc(SCC(=O)Nc3nsc(-c4ccccc4C)n3)nc2c1 was run?
Answer: inconclusive: 1.26 µM [inhibitor, single point]

Question: With O=S(=O)(c1ccc(Br)cc1)N1CCN(c2ccc3nnc(-c4ccccc4)n3n2)CC1 as the compound, how does the Potency read?
Answer: inconclusive: 12.6 µM [activator, partial curve]

Question: For O=C(CSc1nnc(-c2ccc(F)cc2)o1)c1ccc2c(c1)OCCO2, which Potency is on record?
Answer: active: 12.6 µM

Question: How did the Potency turn out when CCc1ccc(NC(=O)CCn2nc(C)c(S(=O)(=O)N3CCCCC3)c2C)cc1 was run?
Answer: inconclusive: 31.6 µM [activator, single point]

Question: For O=C(Nc1nnc(SCc2ccccc2)s1)c1cc2c(s1)CCCC2, which Potency is on record?
Answer: inconclusive: 31.6 µM [inhibitor, single point]

Question: N#C/C(=C\c1cn(Cc2ccc(F)cc2)c2ccccc12)C(=O)NCc1ccco1 was tested. Which Potency did it give?
Answer: inconclusive: 39.8 µM [inhibitor, single point]

Question: With O=C(Cn1c(=O)nc(-c2ccccc2)c2ccccc21)NCc1ccc(Cl)cc1 as the compound, how does the max response, negative = inhibition read?
Answer: inactive: -5.15%

Question: How did the max response, negative = inhibition turn out when CCOC(=O)c1c(C)oc2nc(C)nc(NCc3ccc(OC)cc3OC)c12 was run?
Answer: inactive: -11.1%

Question: For CCOc1ccc(C(C)(C)C)cc1S(=O)(=O)N1CC(C)OC(C)C1 (centres undefined), which Potency is on record?
Answer: inconclusive: 39.8 µM [activator, single point]
